Measurements from PubChem BioAssay AID1346428 (National Center for Advancing Translational Sciences (NCATS), 2018).
About 1,200 (2.5%) of roughly 48,000 compounds were called active. Inconclusive results (about 2%) are left out.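 Rule for the calls: active = activation of at least 60% and not above a set upper limit (about 1 call in 100 departs from these limits); inconclusive = activation of 40% to 60%, or above that upper limit; inactive = activation under 40%.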 This is one part of the list.

Molecular target: Probable G-protein coupled receptor 32 (Homo sapiens) (UniProt O75388)
Test: qHTS for Agonists of Human Resolvin D1 Receptor DRV1; note: 0% is about no effect
Conditions: CHO-K1 GPR32 beta-arrestin PathHunter luminescence, 90 min; at 76.9 µM; stronger effect = higher value; zero percent set by DMSO-only wells
Summary of the method: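 Engineered CHO-K1 line co-expressing GPR32-ProLink and EA-beta-arrestin. Compound treatment lasted 90 min at 37 °C. Luminescence was recorded after 1 h with substrate at ambient temperature, relative to DMSO basal wells.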

Sequence of UniProt O75388 (O75388 whole entry, looked up): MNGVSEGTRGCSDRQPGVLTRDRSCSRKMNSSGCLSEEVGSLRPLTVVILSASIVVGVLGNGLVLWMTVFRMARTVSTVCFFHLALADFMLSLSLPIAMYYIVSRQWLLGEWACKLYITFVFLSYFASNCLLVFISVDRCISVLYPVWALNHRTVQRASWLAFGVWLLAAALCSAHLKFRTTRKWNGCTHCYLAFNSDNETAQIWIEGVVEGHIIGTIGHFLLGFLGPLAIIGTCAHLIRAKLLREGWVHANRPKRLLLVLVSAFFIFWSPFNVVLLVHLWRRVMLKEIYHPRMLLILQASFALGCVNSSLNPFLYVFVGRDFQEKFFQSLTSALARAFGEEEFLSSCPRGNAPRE

Row | SMILES | activation
1 | NS(=O)(=O)c1cc2c(cc1Cl)CN(C1CCCCC1)C2=O | inactive: -29.8%
2 | Cc1ccc(Cn2c(=O)n(Cc3ccccc3)c(=O)c3oc4ccccc4c32)cc1 | inactive: -8.89%
3 | CC(=O)Nc1ccc(NC(=O)c2ccc3c(c2)N(Cc2cccc(Cl)c2)C(=O)c2ccccc2S3=O)cc1 (stereo not given) | inactive: -16%
4 | COCc1nc2ccccc2n1Cc1ccc(C(C)(C)C)cc1 | inactive: -3.84%
5 | CC(=O)N1CCc2cc(S(=O)(=O)NC(Cc3ccccc3)C(=O)NCc3ccccc3)ccc21 (stereo not given) | inactive: 6.79%
6 | O=C(CC1N=C2c3ccccc3N=C(SCc3ccc(F)cc3)N2C1=O)NCCc1ccccc1 (stereo not given) | inactive: -16%
7 | Cc1cccc(Cn2c(-c3ccccc3)nc3ccccc32)c1 | inactive: -82.2%
8 | O=C(CSc1nccn1-c1ccc(F)cc1)Nc1nc2ccccc2s1 | inactive: -10.7%
9 | COc1ccc2[nH]c3c(c2c1)CCN(C(=O)CCC1CCCC1)C3c1ccc(F)cc1 (stereo not given) | inactive: -38.9%
10 | CC(C)(C)OC(=O)N1CCC(c2c(C(=O)N3CCN(c4ccccn4)CC3)cnn2-c2ccc(F)cc2F)CC1 | inactive: -7.54%
11 | Cc1ccc(-c2cnc(C3CC3)o2)cc1S(=O)(=O)Nc1cccc(C)c1C | inactive: -1.75%
12 | CC(C)(C)c1ccc(C(=O)NCC(=O)OCc2cc(=O)n3nc(C4CC4)sc3n2)cc1 | inactive: -14%
13 | COc1ccc(NC(=O)C2CCCN(S(=O)(=O)c3c(C)[nH]c(=O)[nH]c3=O)C2)cc1OC (stereo not given) | inactive: 8.38%
14 | CCN1CCN(c2csc3ccc(Br)cc3c2=O)CC1 | inactive: -29.6%
15 | CCn1c(=O)c2cc(C(=O)NCc3cc(OC)ccc3OC)sc2c2ccccc21 | inactive: 2.39%
16 | Cc1ccc(NC(=O)C2CCCN(c3ncnc4c3nc3n4CCCCC3)C2)c(Br)c1 (stereo not given) | inactive: 14%
17 | COC(=O)c1c(NC(=O)c2ccc(OC)cc2OC)sc2c1CCCCC2 | inactive: -11.3%
18 | COc1ccc(CC(C)NS(=O)(=O)c2ccc3c(c2)CCN3S(C)(=O)=O)cc1OC (stereo not given) | inactive: 5.31%
19 | COc1ccc(NC(=O)c2oc3ccccc3c2NC(=O)c2cc(=O)c3cc(Cl)ccc3o2)cc1 | inactive: -0.0367%
20 | COc1ccc(Cl)cc1NCc1nnc2n1CCCCC2 | inactive: 5.41%
21 | Cc1ccc(NC(=O)Cn2c(=O)c(C(F)(F)F)nc3ccccc32)cc1C | inactive: -5.23%
22 | CCOC(=O)c1ccccc1NC(=O)Cn1nnc2sc3c(c2c1=O)CCCC3 | inactive: -12.7%

Row | SMILES | activation
23 | Cc1ccc(C(C(=O)NC2CCCCC2)N(C)Cc2ccccc2)cc1 (stereo not given) | inactive: -13%
24 | CCc1cccc(CC)c1NC(=O)CCS(=O)(=O)c1ccc(Br)s1 | inactive: 8.27%
25 | Cc1oc2c(c1C(=O)Nc1ccc(F)c(F)c1)C1=NCCN1C=N2 | inactive: 2.49%
26 | CCOc1ccc(NC(=O)c2oc3ccccc3c2NC(=O)C2CCCCC2)cc1 | inactive: -0.449%
27 | Cn1cc(-c2cc3n(n2)CCC(=O)N3CCCC(=O)NCc2ccc(F)cc2)c2ccccc21 | inactive: -4.93%
28 | CCOC(=O)c1ccccc1Nc1nc2ccc(C)cc2n2nnnc12 | inactive: 6.07%
29 | Cc1cccc(C)c1NC(=O)c1nc(S(C)(=O)=O)ncc1N(Cc1ccc(C(C)(C)C)cc1)Cc1ccco1 | inactive: -18.4%
30 | CCN1CCN(Cc2c(O)ccc3oc(C)c(C(=O)Nc4ccc(OC)cc4)c23)CC1 | inactive: 3.26%
31 | CC(C)CNC(=O)N1CCN(S(=O)(=O)c2ccc3c(ccn3C)c2)CC1 | inactive: -3.81%
32 | Cc1ccc(NC(=O)CSc2nc3nc(C)c(Cc4ccccc4)c(C)n3n2)cc1 | inactive: -9.93%
33 | N#C/C(=C\c1ccc(O)c(O)c1)C(=O)NCCCc1ccccc1 | inactive: -17.1%
34 | Cc1ccc2oc3c(c(=O)c2c1)C(c1ccccc1F)N(c1ccccn1)C3=O (stereo not given) | inactive: 0.673%
35 | CCCCCCCCCCCCCCCC(=O)O | inactive: -8.37%
36 | COc1ccc(-c2cc(C(F)(F)F)n3nc(C(=O)Nc4cc(C(F)(F)F)ccc4Cl)cc3n2)cc1OC | inactive: -2.42%
37 | COc1ccc(Cn2ccnc2SCC(=O)Nc2ccc3c(c2)OCO3)cc1 | inactive: -5.61%
38 | COc1ccc(NC(=O)Cn2cc(S(=O)(=O)N3CCC(C)CC3)c3ccccc3c2=O)cc1Cl | inactive: -21.1%
39 | COc1ccc2c(c1)c1c(c(=O)n(-c3ccc(C)cc3)c(=O)n1CC(=O)c1ccc(Cl)cc1)n2C | inactive: 28.1%
40 | Cc1ccc(C)c(CNS(=O)(=O)c2ccc3c(c2)C(C)(C)C(=O)N3C)c1 | inactive: -9.21%
41 | CC1CCN(S(=O)(=O)c2ccc3c(c2)N(CC(=O)NCCN(C)C)C(=O)CO3)CC1 | inactive: -3.65%
42 | Cc1ccccc1C(=O)Nc1cccc(OCc2cc(=O)n3c4c(sc3n2)CCCC4)c1 | inactive: 14.4%
43 | CC1CCN=C(N)S1 (stereo not given) | inactive: 3.4%
44 | COc1ccc2c(CNCCc3ccccc3C)c(C(=O)O)n(Cc3ccccc3C)c2c1 | inactive: -3.01%

Row | SMILES | activation
45 | CCOc1ccc(C(=O)OCCN(CC)CC)cc1 | inactive: -2.63%
46 | CCOc1ccc(NC(=O)c2ccc3[nH]c(C)cc(=O)c3c2)cc1 | inactive: -5.22%
47 | COc1cccc(CNS(=O)(=O)c2ccc3[nH]c4c(c3c2)CCCCC4)c1 | active: 64.5%
48 | Cc1ccc(C)c(N2CCN(C(=O)c3ccc(-c4nc(COc5ccccc5)c(C)o4)cc3)CC2)c1 | inactive: -7.5%
49 | Cc1ccc2c(c1)cc1c(=O)n(CC(=O)N(C)c3ccccc3)nc(C)n12 | inactive: 6.48%
50 | CC(=O)N1CCc2c(sc3c2c(=O)n(-c2cccc(Cl)c2C)c(=O)n3Cc2ccccc2C)C1 | inactive: -16.6%
51 | O=C(CCCCn1c(=O)[nH]c2ccsc2c1=O)N1CCN(c2cccc(C(F)(F)F)c2)CC1 | active: 74%
52 | COc1ccc(CN(Cc2ccco2)C(=O)COc2ccc(Cl)cc2C)cc1 | inactive: -24.2%
53 | CCOC(=O)c1c(S(=O)(=O)N2CCCC(C(=O)NCc3ccc(F)cc3)C2)c(C)n(CC)c1C (stereo not given) | inactive: -2.36%
54 | COc1cccc(-c2nnc(SCC(=O)N3CCCCC3)o2)c1 | inactive: 0.736%
55 | O=C(OCc1cc(=O)n2nc(-c3cccs3)sc2n1)c1cccc(Cl)c1 | inactive: 5.28%
56 | COc1ccc(CNC(=O)C2CCCN(S(=O)(=O)N(C)c3ccc(F)cc3)C2)cc1OC (stereo not given) | inactive: -7.07%
57 | Cc1ccc(C)c(Cn2c(=O)n(CC3CCC(C(=O)N4CCOCC4)CC3)c(=O)c3sccc32)c1 (stereo not given) | inactive: -4.01%
58 | CCOC(=O)c1cccc(NC(=O)c2ccc3c(c2)nnn3CC)c1 | active: 61.4%
59 | CCc1cccc(CC)c1NC(=O)CN(CC(=O)O)CC(=O)O | inactive: -24.5%
60 | Cc1ccn2c(NC(=O)c3cccc(Cl)c3)c(-c3ccccc3)nc2c1 | inactive: -7.52%
61 | CCOCCCn1c(=N)c(C(=O)NC(C)c2ccccc2)cc2c(=O)n3cc(C)ccc3nc21 (stereo not given) | inactive: -9.46%
62 | CCc1ccc(CNc2ncc(-c3cccc(OC)c3)n2C)cc1 | inactive: -31.6%
63 | CCCC(=O)N1CCc2cc(OC)c(OC)cc2C1COc1ccccc1OC (stereo not given) | inactive: 3.55%
64 | CCOC(=O)Cc1cc(C(=O)Nc2ccc(Br)cc2)sc1-c1ccc(C)cc1 | inactive: -16.4%
65 | Cc1cccc(C)c1NC(=O)Cn1c(=O)n(Cc2ccc(C(=O)NCc3ccco3)cc2)c(=O)c2sccc21 | inactive: -7.44%
66 | Cc1cc(C)cc(OCC(=O)Nc2nonc2-c2ccc(Br)cc2)c1 | inactive: 29.1%

Row | SMILES | activation
67 | Cc1nc2sc(C)c(C)n2c(=O)c1S(=O)(=O)N1CCN(c2ccccc2F)CC1 | inactive: -5.87%
68 | Cc1cccc(N2CCN(C(=O)c3ccc4nc(N5CCC(C)CC5)sc4c3)CC2)c1C | inactive: -0.997%
69 | Cc1c(C(=O)N(Cc2ccc(N(C)C)cc2)CC2CCCO2)oc2ccccc12 (stereo not given) | inactive: -33.6%
70 | Cc1ccc2c(Sc3ccc(Cl)cc3)c(C(=O)NCCC(C)C)[nH]c2c1 | inactive: 6.62%
71 | CCc1nnc(SCc2nc(-c3ccccc3Cl)oc2C)c2cc3sc(C)cc3n12 | inactive: -8.64%
72 | O=C(Nc1nc2c(F)cccc2s1)c1ccc(S(=O)(=O)N2CCOCC2)cc1 | inactive: 27.3%
73 | CCCSc1ncc(Cl)c(C(=O)Nc2ccc(S(=O)(=O)N3CCCC(C)C3)cc2)n1 (stereo not given) | inactive: -25.3%
74 | Cc1ccc(NC(=O)CN2C(=O)c3cccnc3Sc3ccccc32)cc1C | inactive: -13.6%
75 | COc1ccc(CN(C(=O)c2ccccc2F)C2CCS(=O)(=O)C2)cc1 (stereo not given) | inactive: -9.98%
76 | COc1ccc2[nH]cc(CCNC(=O)Nc3ccccc3)c2c1 | active: 66.8%
77 | Cc1ccc(NC(=O)N2CC3CCCN3c3ccccc32)cc1C (stereo not given) | inactive: -3.32%
78 | CN(C)c1ccc(CN(Cc2ccco2)C(=O)COc2ccc(F)cc2)cc1 | inactive: -26.7%
79 | Cc1cccc(C(=O)NCC(c2cccs2)S(=O)(=O)c2cccs2)c1 (stereo not given) | inactive: 36.2%
80 | COc1ccccc1CCNC(=O)C(=O)NCC(c1ccco1)S(=O)(=O)c1cccs1 (stereo not given) | inactive: -11.5%
81 | COc1ccc(C(=O)Nc2ccc(NC(=O)c3cccs3)cc2)cc1OC | inactive: -30.8%
82 | Cc1ccc(S(=O)(=O)NC2(C(F)(F)F)NC(=O)N(c3ccc(F)cc3)C2=O)cc1 (stereo not given) | inactive: -1.64%
83 | CCOCCc1nn2c(=O)cc(COC(=O)c3ccccc3NC(=O)c3ccccc3F)nc2s1 | inactive: -9.77%
84 | CCOC(=O)c1ccc(CN(Cc2ccc(C)cc2)S(=O)(=O)c2ccc(F)c(C(=O)Nc3ccc(C)c(F)c3)c2)cc1 | inactive: -21.6%
85 | Cc1ccc(-c2nc3n(n2)C(c2ccccc2Cl)C=C(c2ccc(Cl)cc2)N3)cc1 (stereo not given) | inactive: -4.98%
